# Data taken from patent publication US11618753B2 (priority 2018, dated 2023).
# Tested on: MLKL phosphorylation, HT29-L23 human colorectal adenocarcinoma cells
# Experiment: cells
# Details: read-out: pMLKL HCS Cell Assay (IC50, uM)
row,Compound,IC50 [µM]
1,"Nc1ncnn2c(-c3ccc(F)c(C(=O)N[C@@H]4CN(C(=O)C5CC(F)(F)C5)C[C@@H]4F)c3F)cc(C(F)(F)F)c12 [Example 727, 3-[4-amino-5-(trifluoromethyl)pyrrolo[2,1-f][1,2,4]triazin-7-yl]-N-[(3R,4S)-1-(3,3-difluorocyclobutanecarbonyl)-4-fluoropyrrolidin-3-yl]-2,6-difluorobenzamide]",0.069
2,"CC(CC(=O)N1C[C@H](F)[C@H](NC(=O)c2c(F)ccc(-c3cc(C(F)(F)F)c4c(N)ncnn34)c2F)C1)C(F)(F)F (stereo partly drawn) [Example 728, 3-[4-amino-5-(trifluoromethyl)pyrrolo[2,1-f][1,2,4]triazin-7-yl]-2,6-difluoro-N-[(3R,4S)-4-fluoro-1-(4,4,4-trifluoro-3-methylbutanoyl)pyrrolidin-3-yl]benzamide]",0.059
3,"CCC(O)(C(=O)N1C[C@H](F)[C@H](NC(=O)c2c(F)ccc(-c3cc(C(F)(F)F)c4c(N)ncnn34)c2F)C1)C(F)(F)F (stereo partly drawn) [Example 729, 3-[4-amino-5-(trifluoromethyl)pyrrolo[2,1-f][1,2,4]triazin-7-yl]-2,6-difluoro-N-[(3R,4S)-4-fluoro-1-[2-hydroxy-2-(trifluoromethyl)butanoyl]pyrrolidin-3-yl]benzamide]",0.08
4,"Nc1ncnn2c(-c3ccc(F)c(C(=O)N[C@@H]4CN(C(=O)C5CC5(F)F)C[C@@H]4F)c3F)cc(C(F)(F)F)c12 (stereo partly drawn) [Example 730, 3-[4-amino-5-(trifluoromethyl)pyrrolo[2,1-f][1,2,4]triazin-7-yl]-N-[(3R,4S)-1-(2,2-difluorocyclopropanecarbonyl)-4-fluoropyrrolidin-3-yl]-2,6-difluorobenzamide]",0.384
5,"Nc1ncnn2c(-c3ccc(F)c(C(=O)N[C@@H]4CN(C(=O)C5CCC(F)(F)CC5)C[C@@H]4F)c3F)cc(C(F)(F)F)c12 [Example 731, 3-[4-amino-5-(trifluoromethyl)pyrrolo[2,1-f][1,2,4]triazin-7-yl]-N-[(3R,4S)-1-(4,4-difluorocyclohexanecarbonyl)-4-fluoropyrrolidin-3-yl]-2,6-difluorobenzamide]",0.253
6,"Nc1ncnn2c(-c3ccc(F)c(C(=O)N[C@@H]4CN(C(=O)CC(C(F)(F)F)C(F)(F)F)C[C@@H]4F)c3F)cc(C(F)(F)F)c12 [Example 732, 3-[4-amino-5-(trifluoromethyl)pyrrolo[2,1-f][1,2,4]triazin-7-yl]-2,6-difluoro-N-[(3R,4S)-4-fluoro-1[4,4,4-trifluoro-3-(trifluoromethyl)butanoyl]pyrrolidin-3-yl]benzamide]",0.024
7,"Nc1ncnn2c(-c3ccc(F)c(C(=O)N[C@@H]4CN(C(=O)C5CCC(F)(F)C5)C[C@@H]4F)c3F)cc(C(F)(F)F)c12 (stereo partly drawn) [Example 733, 3-[4-amino-5-(trifluoromethyl)pyrrolo[2,1-f][1,2,4]triazin-7-yl]-N-[(3R,4S)-1-(3,3-difluorocyclopentanecarbonyl)-4-fluoropyrrolidin-3-yl]-2,6-difluorobenzamide]",0.039
8,"CCc1ccc(-c2cc(C(F)(F)F)c3c(N)ncnn23)c(F)c1C(=O)N[C@@H]1CN(C(=O)CC(C)(O)C(F)(F)F)C[C@@H]1F (stereo partly drawn) [Example 734, 3-[4-amino-5-(trifluoromethyl)pyrrolo[2,1-f][1,2,4]triazin-7-yl]-6-ethyl-2-fluoro-N-[(3R,4S)-4-fluoro-1-(4,4,4-trifluoro-3-hydroxy-3-methylbutanoyl)pyrrolidin-3-yl]benzamide]",0.026
9,"CCc1ccc(-c2cc(C(F)(F)F)c3c(N)ncnn23)c(F)c1C(=O)N[C@@H]1CN(C(=O)CC(F)(F)F)C[C@@H]1F [Example 735, 3-[4-amino-5-(trifluoromethyl)pyrrolo[2,1-f][1,2,4]triazin-7-yl]-6-ethyl-2-fluoro-N-[(3R,4S)-4-fluoro-1-(3,3,3-trifluoropropanoyl)pyrrolidin-3-yl]benzamide]",0.105
10,"CCc1ccc(-c2cc(C(F)(F)F)c3c(N)ncnn23)c(F)c1C(=O)N[C@@H]1CN(C(=O)CC(C(F)(F)F)C(F)(F)F)C[C@@H]1F [Example 736, 3-[4-amino-5-(trifluoromethyl)pyrrolo[2,1-f][1,2,4]triazin-7-yl]-6-ethyl-2-fluoro-N-[(3R,4S)-4-fluoro-1-[4,4,4-trifluoro-3-(trifluoromethyl)butanoyl]pyrrolidin-3-yl]benzamide]",0.046
11,"CCc1ccc(-c2cc(C(F)(F)F)c3c(N)ncnn23)c(F)c1C(=O)N[C@@H]1CN(C(=O)CC(C)C)C[C@@H]1F [Example 738, 3-[4-amino-5-(trifluoromethyl)pyrrolo[2,1-f][1,2,4]triazin-7-yl]-6-ethyl-2-fluoro-N-[(3R,4S)-4-fluoro-1-(3-methylbutanoyl)pyrrolidin-3-yl]benzamide]",0.099
12,"CCc1ccc(-c2cc(C(F)(F)F)c3c(N)ncnn23)c(F)c1C(=O)N[C@@H]1CN(C(=O)C2CCC(F)(F)CC2)C[C@@H]1F [Example 739, 3-[4-amino-5-(trifluoromethyl)pyrrolo[2,1-f][1,2,4]triazin-7-yl]-N-[(3R,4S)-1-(4,4-difluorocyclohexanecarbonyl)-4-fluoropyrrolidin-3-yl]-6-ethyl-2-fluorobenzamide]",0.223
13,"CCc1ccc(-c2cc(C(F)(F)F)c3c(N)ncnn23)c(F)c1C(=O)N[C@@H]1CN(C(=O)C2CC2(F)F)C[C@@H]1F (stereo partly drawn) [Example 740, 3-[4-amino-5-(trifluoromethyl)pyrrolo[2,1-f][1,2,4]triazin-7-yl]-N-[(3R,4S)-1-(2,2-difluorocyclopropanecarbonyl)-4-fluoropyrrolidin-3-yl]-6-ethyl-2-fluorobenzamide]",0.02
14,"CCc1ccc(-c2cc(C(F)(F)F)c3c(N)ncnn23)c(F)c1C(=O)N[C@@H]1CN(C(=O)C2CC(F)(F)C2)C[C@@H]1F [Example 741, 3-[4-amino-5-(trifluoromethyl)pyrrolo[2,1-f][1,2,4]triazin-7-yl]-N-[(3R,4S)-1-(3,3-difluorocyclobutanecarbonyl)-4-fluoropyrrolidin-3-yl]-6-ethyl-2-fluorobenzamide]",0.0061
15,"CCc1ccc(-c2cc(C(F)(F)F)c3c(N)ncnn23)c(F)c1C(=O)N[C@@H]1CN(C(=O)C2CCC(F)(F)C2)C[C@@H]1F (stereo partly drawn) [Example 743, 3-[4-amino-5-(trifluoromethyl)pyrrolo[2,1-f][1,2,4]triazin-7-yl]-N-[(3R,4S)-1-(3,3-difluorocyclopentanecarbonyl)-4-fluoropyrrolidin-3-yl]-6-ethyl-2-fluorobenzamide]",0.0088
16,"CCc1ccc(-c2cc(C(F)(F)F)c3c(N)ncnn23)c(F)c1C(=O)N[C@@H]1CN(C(=O)c2ccccc2F)C[C@@H]1F [Example 744, 3-[4-amino-5-(trifluoromethyl)pyrrolo[2,1-f][1,2,4]triazin-7-yl]-6-ethyl-2-fluoro-N-[(3R,4S)-4-fluoro-1-(2-fluorobenzoyl)pyrrolidin-3-yl]benzamide]",0.034
17,"CCC(O)(C(=O)N1C[C@H](F)[C@H](NC(=O)c2c(C)ccc(-c3cc(C(F)(F)F)c4c(N)ncnn34)c2F)C1)C(F)(F)F (stereo partly drawn) [Example 745, 3-[4-amino-5-(trifluoromethyl)pyrrolo[2,1-f][1,2,4]triazin-7-yl]-2-fluoro-N-[(3R,4S)-4-fluoro-1-[2-hydroxy-2-(trifluoromethyl)butanoyl]pyrrolidin-3-yl]-6-methylbenzamide]",0.0049
18,"Cc1ccc(-c2cc(C(F)(F)F)c3c(N)ncnn23)c(F)c1C(=O)N[C@@H]1CN(C(=O)CC(C)(O)C(F)(F)F)C[C@@H]1F (stereo partly drawn) [Example 746, 3-[4-amino-5-(trifluoromethyl)pyrrolo[2,1-f][1,2,4]triazin-7-yl]-2-fluoro-N-[(3R,4S)-4-fluoro-1-(4,4,4-trifluoro-3-hydroxy-3-methylbutanoyl)pyrrolidin-3-yl]-6-methylbenzamide]",0.0081
19,"Cc1ccc(-c2cc(C(F)(F)F)c3c(N)ncnn23)c(F)c1C(=O)N[C@@H]1CN(C(=O)C2(F)CC2)C[C@@H]1F [Example 747, 3-[4-amino-5-(trifluoromethyl)pyrrolo[2,1-f][1,2,4]triazin-7-yl]-2-fluoro-N-[(3R,4S)-4-fluoro-1-(1-fluorocyclopropanecarbonyl)pyrrolidin-3-yl]-6-methylbenzamide]",0.026
20,"Cc1ccc(-c2cc(C(F)(F)F)c3c(N)ncnn23)c(F)c1C(=O)N[C@@H]1CN(C(=O)CC(C)C)C[C@@H]1F [Example 748, 3-[4-amino-5-(trifluoromethyl)pyrrolo[2,1-f][1,2,4]triazin-7-yl]-2-fluoro-N-[(3R,4S)-4-fluoro-1-(3-methylbutanoyl)pyrrolidin-3-yl]-6-methylbenzamide]",0.0035
21,"Cc1ccc(-c2cc(C(F)(F)F)c3c(N)ncnn23)c(F)c1C(=O)N[C@@H]1CN(C(=O)C2CC(F)C2)C[C@@H]1F (stereo partly drawn) [Example 749, 3-[4-amino-5-(trifluoromethyl)pyrrolo[2,1-f][1,2,4]triazin-7-yl]-2-fluoro-N-[(3R,4S)-4-fluoro-1-(3-fluorocyclobutanecarbonyl)pyrrolidin-3-yl]-6-methylbenzamide]",0.0025
22,"Cc1ccc(-c2cc(C(F)(F)F)c3c(N)ncnn23)c(F)c1C(=O)N[C@@H]1CN(C(=O)C2CC(F)(F)C2)C[C@@H]1F [Example 750, 3-[4-amino-5-(trifluoromethyl)pyrrolo[2,1-f][1,2,4]triazin-7-yl]-N-[(3R,4S)-1-(3,3-difluorocyclobutanecarbonyl)-4-fluoropyrrolidin-3-yl]-2-fluoro-6-methylbenzamide]",0.0025
23,"Cc1ccc(-c2cc(C(F)(F)F)c3c(N)ncnn23)c(F)c1C(=O)N[C@@H]1CN(C(=O)C(C)C(F)(F)F)C[C@@H]1F (stereo partly drawn) [Example 751, 3-[4-amino-5-(trifluoromethyl)pyrrolo[2,1-f][1,2,4]triazin-7-yl]-2-fluoro-N-[(3R,4S)-4-fluoro-1-(3,3,3-trifluoro-2-methylpropanoyl)pyrrolidin-3-yl]-6-methylbenzamide]",0.024
24,"Cc1ccc(-c2cc(C(F)(F)F)c3c(N)ncnn23)c(F)c1C(=O)N[C@@H]1CN(C(=O)CC(C)C(F)(F)F)C[C@@H]1F (stereo partly drawn) [Example 752, 3-[4-amino-5-(trifluoromethyl)pyrrolo[2,1-f][1,2,4]triazin-7-yl]-2-fluoro-N-[(3R,4S)-4-fluoro-1-(4,4,4-trifluoro-3-methylbutanoyl)pyrrolidin-3-yl]-6-methylbenzamide]",0.0012
